Measured values: the supplement of paper PMC11417369
The other results are listed elsewhere or left out.

The sequences below were run on PF3D7_0420300 AP2 domain 1 (GST-tagged) (assay: gcPBM binding intensity (ln(normalized median fluorescence intensity)); higher = stronger DNA binding).
Method in brief: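 Plasmodium falciparum DNA-binding domains carrying a GST tag were expressed in E. coli and applied for 1 h, at about 25 μg on average, to an Agilent 4 × 180k array. The array held primer-extended double-stranded 36-bp intergenic genomic probes together with negative controls, and binding took place in 1× PBS with 1% milk, 0.2 mg/ml BSA, 0.5% salmon testes DNA and 0.03% Triton X-100. An Alexa488 anti-GST antibody detected bound protein, and the array was scanned at 488 nm. Binding intensity is taken as the highest Masliner-normalised natural-log median intensity across replicate spots of either probe orientation.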
AGTAATTATTTTAGAGTGCATAGTTTTTTAATAAAT was tested, and the “gcPBM binding intensity (ln)” value was 9.13. In the case of “AAATATATTTTTAATAGTACAATATGAAAATTTCAT [XGTACX_site2562]”, the “gcPBM binding intensity (ln)” value is reported as 9.1. “CACCATGTTAACAATACATGCATCACTATATAAATG [TGCATGCA_site36]” was tested, and the “gcPBM binding intensity (ln)” value was 9.23. In the case of “AAAAAAAAGGAAATAACACACATGTATATATTTATA [CACACA_site1606]”, the “gcPBM binding intensity (ln)” value is reported as 9.44. In the case of “GTACACATATATATATATATATATATATATATATAT [CACACA_negctrl_site800]”, the “gcPBM binding intensity (ln)” value is reported as 9.25. In the case of “TTTTTTTTTTTTTTTTGTACTCATACATACTATTAT [XGTACX_site989]”, the “gcPBM binding intensity (ln)” value is reported as 8.85. For “TAATTTTCATGTTCATGTACTTAAATATAAGGTAAA [XGTACX_site3284]”, the “gcPBM binding intensity (ln)” value was 8.89. “TGCCTTATTAAAAGAATTACACATATTTAATCGAAA [GTGCAC_negctrl_site153]” was tested, and the “gcPBM binding intensity (ln)” value was 8.89. For “ATTCATAACAAAAAAAGTACTCAAAATAATAATAAA [XGTACX_site6079]”, the “gcPBM binding intensity (ln)” value was 9.22. “TATTAAAAAATTATATGTACACATTTGTTATATACA [XGTACX_site2232]” was tested, and the “gcPBM binding intensity (ln)” value was 9.05. In the case of “ATAAAAAAATAAATAACACACAAAATTACACGAAAA [CACACA_site3620]”, the “gcPBM binding intensity (ln)” value is reported as 9.95. “AATTAAAGGAATTACAACTTTGCAAGCGCAACATAA [CACACA_negctrl_site1411]” was tested, and the “gcPBM binding intensity (ln)” value was 9.12. With “TTCTTTATATATGTTCGTACATATTATTATAATACA [XGTACX_site1549]” the “gcPBM binding intensity (ln)” value was 9.38. With “TATGTCCATATTTCCACACACATATTATTTTTATAT [CACACA_site3798]” the “gcPBM binding intensity (ln)” value was 9.8. For “GATTCATTTCGTAATACACACAACAAATATTTCAAA [CACACA_site1772]”, the “gcPBM binding intensity (ln)” value was 9.47. For “AATGTAAATAAGTGTACACATATATAATACATACAT [CACACA_site4938]”, the “gcPBM binding intensity (ln)” value was 9.56. “TACCTTATATTATATACACACATATAATATAATATA [CACACA_site1328]” was tested, and the “gcPBM binding intensity (ln)” value was 9.41. For “ATTCAATAAACGTATTGTACAAAAGAACGATATATT [XGTACX_site2533]”, the “gcPBM binding intensity (ln)” value was 9.32. With “TATTGGATCACACAAAAATGTATAAATAAATAGAAA [TGCATGCA_negctrl_site490]” the “gcPBM binding intensity (ln)” value was 9.16. With “TTATGTTGCGAGTTCTTAAGATATAAAAAATTCTTC [GTGCAC_negctrl_site45]” the “gcPBM binding intensity (ln)” value was 8.95. “ATCATAACTTGATACGCACACGTTATATAAATAAAA [CACACA_site4955]” was tested, and the “gcPBM binding intensity (ln)” value was 9.01. In the case of “TGAGAATAAAAAAAAGGGATTATTAGATTTCTCCTT [TGCATGCA_negctrl_site326]”, the “gcPBM binding intensity (ln)” value is reported as 9.03. For “AAGACAAATTGTGACACACACAAAAAAAAAAAAAAA [CACACA_site3727]”, the “gcPBM binding intensity (ln)” value was 9.32. With “AAAAAAATAAGGTGCACACAAAAAAAAAAAAAAAAA [CACACA_site812]” the “gcPBM binding intensity (ln)” value was 9.23. In the case of TAAAATAATATTTATGTGCACATATAATTATTAATT, the “gcPBM binding intensity (ln)” value is reported as 9.08. In the case of “AGAAAAAACAAAAGAGAAATGAAAAAAAAAAAAAAA [XGTACX_negctrl_site482]”, the “gcPBM binding intensity (ln)” value is reported as 8.87. For “TTTGTGCTTATCCTAACACACACAACATATAAGAAA [CACACA_site9091]”, the “gcPBM binding intensity (ln)” value was 9.49. With “ATATATATTTTTATAACACACAATGATGTACATTAC [CACACA_site1076]” the “gcPBM binding intensity (ln)” value was 9.4. In the case of “TGTGTAGCTAGGGGGTTGCTAATTTTTGTTTTGACC [CACACA_negctrl_site634]”, the “gcPBM binding intensity (ln)” value is reported as 9.72. With “TTATATATACCATAATGTACTCTATTATATAAAAAA [XGTACX_site7464]” the “gcPBM binding intensity (ln)” value was 8.92. With “GTCTCCTTTATTTTTGGTACAGATAAGATAAAAGGA [XGTACX_site1591]” the “gcPBM binding intensity (ln)” value was 8.97. With “ATTATCAAAAAAAAAAAAAAAAAAAAAAAAAAAAAA [CACACA_negctrl_site1118]” the “gcPBM binding intensity (ln)” value was 8.51. In the case of “GTGTTCATATATAGCCGTACATATGTCTTATGAACG [XGTACX_site5647]”, the “gcPBM binding intensity (ln)” value is reported as 9.08. “AATCAAAATATATCTACACACATTTAAGTAACCCAT [CACACA_site5846]” was tested, and the “gcPBM binding intensity (ln)” value was 9.69. In the case of “TATAACATTATTTTGTGTACACATTCGGTTATATTA [XGTACX_site6310]”, the “gcPBM binding intensity (ln)” value is reported as 9.51. In the case of “ATATAGATCTATAATACACACTTATGAAATGTCTAA [CACACA_site6946]”, the “gcPBM binding intensity (ln)” value is reported as 9.38. With “TTGTTTCCGATGAAAGAAAGGAAATTATAATATATC [GTGCAC_negctrl_site516]” the “gcPBM binding intensity (ln)” value was 8.99. For “ACAAAAAAAAAAAAAATACACACACATAAAAAAAAA [TGCATGCA_negctrl_site333]”, the “gcPBM binding intensity (ln)” value was 9.72. In the case of “ACAAAATATTTTTCTTCACACATCCATTCAACATTT [CACACA_site5886]”, the “gcPBM binding intensity (ln)” value is reported as 9.44. For “AATCAAAACATTAAAAAGAAAAAATATATATATATA [CACACA_negctrl_site366]”, the “gcPBM binding intensity (ln)” value was 9.03. “TATATATATATATATATTAATAATTAATATAAAAGA [XGTACX_negctrl_site32]” was tested, and the “gcPBM binding intensity (ln)” value was 9.19. With “CCATTCAAATTTCGCACACACATACAAAAAAAAAAA [CACACA_site3093]” the “gcPBM binding intensity (ln)” value was 9.56. “TATAAATGATTAATTTGTACATATTTTACTTAATTG [XGTACX_site5271]” was tested, and the “gcPBM binding intensity (ln)” value was 9.16. In the case of “TTGATGATATCATTTTGTACTTATACGTATTTAAAA [XGTACX_site148]”, the “gcPBM binding intensity (ln)” value is reported as 9.03. In the case of “TAAATAAATAAATATATATATATATATATATATATA [XGTACX_negctrl_site70]”, the “gcPBM binding intensity (ln)” value is reported as 8.94. “GATTCCTTTAACCCTGCACACATACATACATTTATA [CACACA_site9308]” was tested, and the “gcPBM binding intensity (ln)” value was 10.1. In the case of “TAATAATATAATAATACACACTCATTATATATATAA [CACACA_site6045]”, the “gcPBM binding intensity (ln)” value is reported as 9.38. For “TATATTTCTTATTACATACACACATATACATATATG [CACACA_site3202]”, the “gcPBM binding intensity (ln)” value was 9.58. For “ATAGATGCATATTATACACACATATGTAAATACATT [CACACA_site4691]”, the “gcPBM binding intensity (ln)” value was 9.48. In the case of “CCACTATATAAAATCACACATTTATATTATACATAT [CACACA_site4570]”, the “gcPBM binding intensity (ln)” value is reported as 9.37. With “TATTGGTAATGTAAATGTACATATAGATATTTACAT [XGTACX_site1922]” the “gcPBM binding intensity (ln)” value was 9.12. With “TTTATTTTAATTTATTGTACATTGTTATCAAGTGCA [XGTACX_site1110]” the “gcPBM binding intensity (ln)” value was 8.87. For “TTGAAGTTAATAAAAACTTTATACATGAAATTATTT [CACACA_negctrl_site684]”, the “gcPBM binding intensity (ln)” value was 8.89. For “AAAAAAAGAAATTAGGTGCATAGCATTAACCGATAA [GTGCAC_site9582]”, the “gcPBM binding intensity (ln)” value was 9.3. “ATAATAGTTAAATGTACACACTAACTACATGGAATA [CACACA_site5753]” was tested, and the “gcPBM binding intensity (ln)” value was 9.45. “TTGAAAAATCAGCACACACACAAATACATACATATT [CACACA_site7505]” was tested, and the “gcPBM binding intensity (ln)” value was 9.9.
